Experimental data reported in paper PMC4336329 (PLoS ONE, 2015).
Hit rate of the full screen: of about 310,000 compounds, about 2,200 (0.71%) showed an effect of 50% or more. Effects have a minus sign here. The list shows a part of the results.

target: human ether-à-go-go-related gene (hERG) potassium channel (human, UniProt Q12809); assay: primary screen, population patch clamp on CHO cells stably expressing hERG
Sequence (Q12809 whole entry, looked up): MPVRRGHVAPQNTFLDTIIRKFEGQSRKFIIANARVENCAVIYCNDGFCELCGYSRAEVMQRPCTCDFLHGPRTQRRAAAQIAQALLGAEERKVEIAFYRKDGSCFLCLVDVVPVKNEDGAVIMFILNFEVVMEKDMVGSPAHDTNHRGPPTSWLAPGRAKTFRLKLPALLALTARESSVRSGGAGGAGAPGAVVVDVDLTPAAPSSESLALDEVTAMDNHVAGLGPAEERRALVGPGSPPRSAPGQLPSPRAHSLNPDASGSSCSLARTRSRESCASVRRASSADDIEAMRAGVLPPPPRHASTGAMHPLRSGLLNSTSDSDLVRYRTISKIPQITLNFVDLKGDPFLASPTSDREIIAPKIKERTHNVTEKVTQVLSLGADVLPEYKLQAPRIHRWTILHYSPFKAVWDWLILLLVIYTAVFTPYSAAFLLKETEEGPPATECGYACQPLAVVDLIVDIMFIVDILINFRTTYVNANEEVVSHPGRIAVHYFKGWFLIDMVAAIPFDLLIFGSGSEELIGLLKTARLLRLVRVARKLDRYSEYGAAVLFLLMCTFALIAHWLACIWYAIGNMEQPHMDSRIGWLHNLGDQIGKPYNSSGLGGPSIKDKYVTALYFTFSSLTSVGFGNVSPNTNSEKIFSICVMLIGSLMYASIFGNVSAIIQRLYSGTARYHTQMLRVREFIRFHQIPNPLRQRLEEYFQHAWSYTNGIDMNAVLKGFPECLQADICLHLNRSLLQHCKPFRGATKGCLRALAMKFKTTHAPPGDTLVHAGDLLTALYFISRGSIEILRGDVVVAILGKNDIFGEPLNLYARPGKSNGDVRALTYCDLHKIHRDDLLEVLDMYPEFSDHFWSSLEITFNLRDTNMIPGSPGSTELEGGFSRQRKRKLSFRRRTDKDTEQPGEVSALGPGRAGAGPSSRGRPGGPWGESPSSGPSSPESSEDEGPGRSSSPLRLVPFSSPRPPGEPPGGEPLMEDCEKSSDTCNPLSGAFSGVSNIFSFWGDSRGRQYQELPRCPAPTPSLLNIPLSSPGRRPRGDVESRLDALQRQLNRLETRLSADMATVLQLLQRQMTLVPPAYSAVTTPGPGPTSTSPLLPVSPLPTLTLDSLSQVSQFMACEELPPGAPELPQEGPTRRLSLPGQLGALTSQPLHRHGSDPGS

| Compound | hERG current change (%, negative = inhibition) at 1uM [%] |
| --- | --- |
| Cc1ccccc1-c1nc(CS(=O)CC(=O)NC(C)CCc2ccccc2)c(C)o1 (stereo not shown) | 5.81 |
| CCCCn1c(N)c(N(CCOC)C(=O)C2CC(=O)N(c3ccc(CC)cc3)C2)c(=O)[nH]c1=O (stereo not shown) | 5.18 |
| O=C1NC(=Nc2ccccc2)S/C1=C\c1ccccc1 | 8.15 |
| CCn1cc(C(=O)N[C@@H](C)C(=O)NCCCn2ccnc2)c(=O)c2cc3c(cc21)OCO3 | 11.2 |
| COc1ccc(-c2noc(-c3cc4ccccc4oc3=O)n2)cc1 | 11.1 |
| Cc1cc(C)n2nc(CNS(=O)(=O)c3ccc(CC(C)C)cc3)nc2n1 | 1.86 |
| COc1ccc(-c2cc(C(F)(F)F)n3nc(C(=O)N4CCCCC4)cc3n2)cc1OC | 8.87 |
| Cc1nnc(N2C(=O)C(O)=C(C(=O)c3ccco3)C2c2cccc([N+](=O)[O-])c2)s1 (stereo not shown) | 7.51 |
| COc1ccc(-c2cc(C(=O)Nc3cnn(Cc4ccccc4C)c3)no2)cc1OC | -1.78 |
| Cc1ccccc1OCCC(=O)OCC(=O)Nc1cc(S(=O)(=O)N2CCOCC2)ccc1Cl | -1.26 |
| N=c1oc2ccc(Cl)cc2cc1C(=O)NC1CCCCCC1 | 8.26 |
| COc1ccc(NC(=O)CC(c2ccco2)C(C)C)cc1 (stereo not shown) | 21.5 |
| O=C(NCCO)Nc1ccc2nsnc2c1 | -7.54 |
| CCCC(=O)NC(c1ccccc1Cl)c1ccc2cccnc2c1O (stereo not shown) | 12 |
| O=[N+]([O-])c1cc(S(=O)(=O)c2ccc(N3CCCCC3)c([N+](=O)[O-])c2)ccc1N1CCCCC1 | 9.27 |
| COc1ccc(C2=NOC(COc3ccc([N+](=O)[O-])cc3)C2)cc1 (stereo not shown) | 7.89 |
| CC(=O)c1ccc(OCCOc2ccc([N+](=O)[O-])cc2)cc1 | -1.36 |
| O=C(Nc1ccc2c(c1)CCC2)Nc1ccccc1F | -37.7 |
| O=C(Nc1ccc(NC(=O)c2ccc(S(=O)(=O)c3ccccc3)cc2)cc1)c1ccccc1 | 20 |
| Nc1nc(SCC(=O)NCCO)nc2sc3c(c12)CCCC3 | 2.69 |
| CCN(CC)S(=O)(=O)c1ccc2c(c1)nc(SCC(N)=O)n2-c1ccc(OC)cc1 | -16.9 |
| CCNC(=S)NNC(=O)c1cccn(Cc2ccc(Cl)cc2Cl)c1=O | 2.45 |

| Compound | hERG current change (%, negative = inhibition) at 1uM [%] |
| --- | --- |
| CCC(=O)NC(Nc1nc(C)cs1)(C(=O)OC)C(F)(F)F (stereo not shown) | 0.8 |
| Cc1ccc(Cn2c(=N)c(C(=O)NC3CCCCC3)cc3c(=O)n4ccccc4nc32)cc1 | -5.62 |
| COCc1cc(=O)n2[nH]c(-c3ccccc3)cc2n1 | -3.4 |
| Cc1nn(-c2ccccc2)c2sc(C(=O)OCc3nnc(-c4ccccc4)o3)cc12 | 4.81 |
| Cc1nnc2ccc(-c3ccc(NS(=O)(=O)c4ccc(F)cc4F)cc3)nn12 | 5.57 |
| O=C(O)CCC(NC(=O)c1ccc(Cl)cc1)C(=O)O (stereo not shown) | 13.2 |
| O=C(NCC1CCCO1)c1cc(S(=O)(=O)N2CCOCC2)ccc1Cl (stereo not shown) | 17.6 |
| O=C(c1ccco1)n1nc(-c2ccccc2)nc1NCc1ccco1 | 7.97 |
| CC(=O)N1CCN(C2=NC(=O)/C(=C\c3cccs3)S2)CC1 | 1.72 |
| COc1ccc(NC(=O)CSc2nc3ccccc3c(=O)n2CCCC(=O)NCC2CCCO2)c(OC)c1 (stereo not shown) | 14.1 |
| CCCn1c(=O)c(C(=O)NNS(=O)(=O)c2ccc(Cl)cc2)c(O)c2ccccc21 | -7.17 |
| CNC(=O)COc1ccc(S(=O)(=O)Nc2ccccc2)cc1 | 11.8 |
| O=C(OCC(=O)N1CCCC1)c1c(Cl)ccc(Cl)c1Cl | 9.45 |
| O=C(O)c1cc(-c2ccc(N3CCOCC3)cc2)nn1-c1ccc(F)cc1F | 12.7 |
| O=C(Nc1ccnn1C1CCN(CC(O)CO)CC1)C1CCCC1 (stereo not shown) | 12.5 |
| CC(NC(=O)c1ccccc1NC(=O)c1ccccc1)C(=O)N1CCOCC1 (stereo not shown) | 1.87 |
| Cl.Cn1c2c(c3ccccc31)CCN1CCC[C@]21c1ccccc1 | 12.1 |
| Cc1cc(C)n(C(=O)CNC(=O)c2cccc(Br)c2)n1 | 2.07 |
| CN(C)c1ccc(NC(=O)c2ccc3nc[nH]c3c2)cc1 | 14.3 |
| CC1CCCCN1CC(=O)Nc1ccc(Oc2ccccc2)cc1.Cl (stereo not shown) | -2.88 |
| COc1ccc(N(C)C(=O)c2cn(C)c(=O)c3cc(OC)c(OC)cc23)cc1 | 14.6 |
| CCOc1ccc(NC(=O)CSc2nnc(Cn3cnc([N+](=O)[O-])n3)n2C)cc1 | 13.8 |

| Compound | hERG current change (%, negative = inhibition) at 1uM [%] |
| --- | --- |
| C=CCC1NS(=O)(=O)O[C@H](CCCC)[C@@H]1O (stereo partly shown) | 8.57 |
| O=C(N/N=C/c1cc(O)ccc1Br)c1cccnc1 | 16.6 |
| O=C(CCCN1C(=O)/C(=C\c2cccs2)SC1=S)Nc1cccnc1 | 15.2 |
| O=C(Cc1ccc(F)cc1)NCCS(=O)(=O)N1CCN(c2ccccc2)CC1 | 17.2 |
| O=C(COC(=O)CCC(NC(=O)OCc1ccccc1)C(=O)OCC(=O)Nc1ccccc1)Nc1ccccc1 (stereo not shown) | -1.5 |
| CCc1ccnc(NC(=O)NS(=O)(=O)c2ccc(C)cc2)c1 | 17.5 |
| BrC(=C\c1ccccc1)/C=N/Nc1nc2ccccc2[nH]1 | 6.83 |
| O=C(CN1CCN(Cc2ccc3c(c2)OCO3)CC1)Nc1ccc(N2CCOCC2)cc1 | 8.8 |
| CCCCCC(=O)NNC1=NCC(Cc2cccc(Cl)c2)S1 (stereo not shown) | 9.14 |
| CC(=O)Nc1ccc(-c2cn3c(n2)SCC3)cc1 | 9.67 |
| COc1cc(/C=N/NC(=O)c2cccnc2)cc(Br)c1O | 8.09 |
| CCC(C)CCN1CCN=C1N(C)C (stereo not shown) | 17.6 |
| CC(=O)N1CCOc2cc(S(=O)(=O)NCc3ccc(F)cc3)c(C)cc21 | -6.22 |
| COc1ccc(NC2c3ccccc3C(=O)N2Cc2ccc3c(c2)OCO3)cc1 (stereo not shown) | 6.29 |
| O=c1c2c(nc3nc(NCc4cccc5ccccc45)[nH]n13)CCC2 | 16.1 |
| CCN(CC(=O)Nc1c(F)cccc1F)C(=O)CSc1nc(C)cc(C)n1 | 9.69 |
| CC(=O)C1=C(C)NC(=S)NC1c1cccc([N+](=O)[O-])c1 (stereo not shown) | 9.64 |
| O=C(Cn1ncc2ccccc21)N1CCN(c2cccc(C(F)(F)F)c2)CC1 | 5.47 |
| Cc1ccc2occ(CN3CCN(Cc4ccccc4)CC3)c(=O)c2c1 | -9.34 |
| CN(C)CCNC(=O)c1cccc(S(=O)(=O)Nc2ccc(F)cc2)c1.Cl | 19.6 |
| COC(=O)c1c(NC(=O)/C=C/C(=O)O)sc(C)c1-c1ccc(C)c(C)c1 | 5.79 |
| O=S(=O)(c1cc(Cl)cc(Cl)c1)N1CCCC1c1nc2ccccc2s1 (stereo not shown) | 9.87 |

| Compound | hERG current change (%, negative = inhibition) at 1uM [%] |
| --- | --- |
| CN(C)c1cccc(C(=O)N/N=C/c2ccccc2F)c1 | 6.01 |
| CS(=O)(=O)c1nc(S(=O)(=O)c2ccc(Cl)cc2)c(N2CCC(C(N)=O)CC2)s1 | -6.12 |
| CCc1cc(-c2[nH]ncc2-c2ccc3c(c2)OCO3)c(O)cc1O | 8.12 |
| Cc1ccc(NC(=O)C2=CC(c3cccs3)=NS(=O)(=O)N2C)cc1 | 9.67 |
| O=C1C2C3C=CC(C3)C2C(=O)N1c1nccs1 (stereo not shown) | 20.1 |
| COc1ccc(C(=O)N2CCCCCC2)cc1S(=O)(=O)N1CCOCC1 | 12.7 |
| O=C(O)c1nn(CCOc2ccc(Br)cc2)c(=O)c2ccccc12 | 16.6 |
| CN1C(=O)[C@H]2[C@@H](/C=C/c3ccccc3)N3C(=O)CN(Cc4ccc(-c5ccccc5)cc4)C(=O)[C@@]3(Cc3ccccc3)[C@H]2C1=O | 8.13 |
| O=C(Nc1ccc(Cl)cc1)N1CCN(c2ncccn2)CC1 | 3.45 |
| COc1cc(/C=N/NC(=O)c2cnccn2)cc(OC)c1OC | 2.4 |
| O=C(O)c1ccc(CSc2nnnn2C2CCCCC2)cc1 | -1.94 |
| CC(NC(=O)c1ccc(NC2=NC3CS(=O)(=O)CC3S2)cc1)c1ccccc1 (stereo not shown) | 12.7 |
| Cc1c(NC(=O)c2ccc(CN3CCc4ccccc4C3)cc2)c(=O)n(-c2ccccc2)n1C | 4.18 |
| O=c1c2[nH]c3ccccc3c2ncn1CCCn1ccnc1 | -12 |
| COc1ccc(Nc2nc(C)cc(C)c2C(N)=O)c(OC)c1 | 12.5 |
| O=C(O)c1cc([N+](=O)[O-])ccc1N1CCC(Cc2ccccc2)CC1 | 7.61 |
| Cc1cc(C)c2c(CC(=O)NCc3ccco3)coc2c1 | 3.41 |
| O=Cc1c(C(=O)O)n(CC(=O)O)c2ccccc12 | 6.49 |
| CC(C)=CCC(C)(C)CNC(=O)NC1CCCCC1 | 9.18 |
| OCCN=C1CCCc2c1[nH]c1ccc(Cl)cc21 | 6.5 |
| Cc1ncc(N=Nc2ccccc2)c(-c2ccccc2)n1 | 18.4 |
| C=CCN1C(=O)/C(=C/c2ccc(O)cc2)S/C1=N/c1nccs1 | -4.68 |
